# According to PubChem BioAssay AID1794842 (National Center for Advancing Translational Sciences (NCATS), 2023):
# In all, about 2,800 compounds went through this assay and fewer than 10 were called active. Calls come from the whole dose curve; as a rule, active = well fitted curve in the direction sought with a large enough effect; inconclusive = small, poorly fitted or top-dose-only effect, or another doubt; inactive = no such curve, though single readings can be large or run the other way. The list shows a part of the results.
# Target: Metallo-beta-lactamase type 2 (Klebsiella pneumoniae) (UniProt C7C422)
# Sequence of UniProt C7C422 (C7C422 whole entry, looked up): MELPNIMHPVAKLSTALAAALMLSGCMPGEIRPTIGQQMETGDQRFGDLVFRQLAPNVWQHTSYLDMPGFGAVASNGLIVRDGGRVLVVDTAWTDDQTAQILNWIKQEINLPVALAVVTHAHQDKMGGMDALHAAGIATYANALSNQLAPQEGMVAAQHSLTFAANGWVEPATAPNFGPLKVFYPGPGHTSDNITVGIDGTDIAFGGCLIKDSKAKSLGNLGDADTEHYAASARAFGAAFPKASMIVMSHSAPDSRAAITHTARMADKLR
# Test: qHTS to identify inhibitors of the New Delhi Metallo-beta-lactamase (NDM): Meropenem screen against the machine-based learning selections. Note: % of control where 0% means no effect.
# Details: Purified NDM-1, meropenem hydrolysis, absorbance 300 nm; at 38.4 µM (top of the series) unless noted
# Summary of the method: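 NDM-1 (2 nM final) in 50 mM HEPES pH 7.0, 1 uM Zn2SO4, 0.01% Tween20 was preincubated with compounds for >30 min. Nitrocefin (16.7 uM final) was read at 485 nm after 15 min, and meropenem (50 uM final) at 300 nm after 30 min.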
row,SMILES,"activity change, negative = inhibition"
1,CS(=O)(=O)N[C@H]1C[C@H]2C(=O)Nc3ccc(-c4ccc5c(c4)OCO5)cc3C(=O)N2C1,inactive: 4.29% [at 57.5 µM]
2,COCc1noc(CCNc2cc(C)nc(-c3ccccc3O)n2)n1,inactive: -1.23%
3,O=C1Nc2ccccc2O[C@H]2C[C@@H]1N(Cc1ccc3ccccc3n1)C2,inactive: 15.6% [at 57.5 µM]
4,COCc1cc(=O)n(CC(=O)Nc2cccc(F)c2)c(N2CCOCC2)n1,inactive: 3.57%
5,COc1ccc(-c2ccnc(N[C@H]3CO[C@H]4[C@@H]3OC[C@H]4OC(=O)Nc3cccc(OC)c3)n2)cc1,inactive: -2.55%
6,Clc1ccc(-c2cnc3n2C[C@H](CNCc2ccc4c(c2)OCO4)OC3)cc1,inactive: 17.4% [at 57.5 µM]
7,Cc1cc(C)n2nc(C(=O)N3CCC(Cc4cccc(C(N)=O)c4)C3)nc2n1 (stereo not given),inactive: 0.171%
8,Cc1ccc2c(c1)N1C(=O)OC[C@@H]1CCN(Cc1cccc(Cl)c1)C2,inactive: 0.512% [at 57.5 µM]
9,CCOCCN1C(=O)COC[C@@H]1[C@H](O)c1ccc(NC(=O)Cc2ccccc2)cc1,inactive: -0.552% [at 57.5 µM]
10,CN(Cc1cc2n(n1)CCNC2)Cc1nc2ccsc2c(=O)[nH]1,inactive: 22.7%
11,CSCC(=O)N1C[C@@H](NC(=O)NC2CCCCC2)C[C@H]1C(=O)N[C@H](Cc1c[nH]c2ccccc12)C(N)=O,inactive: 0.14%
12,CCNC(=O)NC[C@@H]1C=C(C)[C@H](CC(=O)NCc2ccccn2)C[C@H]1C(C)C,inactive: 20.6% [at 57.5 µM]
13,Cc1cc(C(=O)N2CC(N(C3CCOCC3)S(C)(=O)=O)C2)nn1C,inactive: 0.0305%
14,O=C(Cc1ccccc1)Nc1ccnn1C1CCN(Cc2ccc3cccc(F)c3n2)CC1,inactive: 1.18%
15,Cc1ncccc1C(=O)N1CCC(N2CC3CC(C2)[C@H]2CCCC(=O)N2C3)CC1 (stereo not given in full),inactive: 0.935%
16,CN(Cc1ccsc1)CC1(O)CCCN(CCCc2ccccc2)C1=O (stereo not given),inactive: 3.38%
17,COc1ccc(-c2nnc3n2CCN(C(=O)N(C)C)C3)cc1,inactive: 2.62% [at 57.5 µM]
18,Cn1ncc(N2CCC(CNC(=O)c3cccc(-c4ncc[nH]4)c3)C2)cc1=O (stereo not given),inactive: 5.13%
19,Cn1c(=O)[nH]cc(CC(=O)N2CCCC(c3cccc(C(=O)O)c3)C2)c1=O (stereo not given),inactive: 2.14%
20,C=CCN(C)C(=O)[C@@H](C)C1CC[C@@]2(C)Cc3sc(NCCCC)nc3[C@@H](C)[C@@H]2[C@H]1O (stereo not given in full),inactive: -1.93% [at 57.5 µM]
21,O=[N+]([O-])c1cccc(-c2noc([C@@H]3C[C@@H](O)CN3Cc3ccccc3)n2)c1,inactive: 2.26% [at 57.5 µM]
22,COc1ccc(C(=O)N2CCC(c3nc(C4CCOCC4)no3)C2)cc1OC (stereo not given),inactive: -1.16%
23,COCCN1C[C@H]2CN(C(=O)c3ccccc3OC)CCN2C1=O,inactive: -0.628% [at 57.5 µM]
24,c1ccc(-c2cn3c(n2)CO[C@@H](CNCc2cccs2)C3)cc1,inactive: -1.46% [at 57.5 µM]
25,COc1ccc(-c2ccc3ncc(Nc4ccc(CCO)cc4)n3n2)cn1,inactive: 12.6% [at 57.5 µM]

row,SMILES,"activity change, negative = inhibition"
1,O=C(NCCc1csc(-c2cnccn2)n1)C1CC2(CCNCC2)CN1 (stereo not given),inactive: 40%
2,O=C(NC1CCCC1)N1CC(c2nnc(-c3ccncc3)o2)C2(CCOCC2)C1 (stereo not given),inactive: 1.54%
3,CN(Cc1cn(-c2ccccc2)nn1)Cc1nccn1Cc1ccccc1,inactive: 13.8%
4,COC(=O)[C@H](Cc1ccc(OC)cc1)NC(=O)[C@@H]1CN(C(=O)c2cccc(F)c2)CCN1C(C)=O,inactive: 1.4%
5,OCC1(O)CCN(C2CCN(c3ccc4c(c3)OCO4)CC2)CC1,inactive: 4.58%
6,O=C(CN1CCOc2ccccc2C1)N[C@H]1CCOC[C@H]1C1CCOCC1,inactive: 2.19%
7,COC[C@H]1CCCN1C(=O)C(C)[C@@H]1CC[C@@]2(C)CC[C@H](NC(C)=O)[C@@H](C)[C@@H]2[C@H]1O (stereo not given in full),inactive: 3.58% [at 57.5 µM]
8,O=C1Cc2c(-c3cccc(O)c3)n[nH]c2CN1CC1CC1,inactive: 5.48% [at 76.7 µM]
9,CN(C)CCN1CC2(CCCN(C(=O)CN(C)c3ccccc3)C2)CCC1=O (stereo not given),inactive: -2.25%
10,O=C(N[C@H]1CCN2C(=O)[C@@H](Cc3c[nH]c4ccccc34)NC(=O)[C@H]12)c1cnccn1,inactive: 3.09% [at 57.5 µM]
11,CC[C@H]1CN(S(=O)(=O)c2ccccc2)CC[C@H]1CC(=O)NCCOC,inactive: -0.308% [at 57.5 µM]
12,Cc1ccccc1Nc1cnc2ccc(-c3cccc(CO)c3)nn12,inactive: 63.5% [at 57.5 µM]
13,COc1cccc(C(=O)N[C@H]2[C@H](O)[C@H](O)C[C@@H]2c2ccc(N3CCOCC3)nc2)c1,inactive: 4.01% [at 57.5 µM]
14,CC(C)C[C@@H]1N[C@H](C(=O)NCc2cccs2)Cc2c[nH]c3cccc1c23,inactive: 0.396% [at 57.5 µM]
15,COc1cccc(Nc2ccc3c(n2)C(C)(C(=O)NCCc2cnc[nH]2)CN(C)C3)c1 (stereo not given),inactive: -0.198% [at 57.5 µM]
16,CSCC(=O)N1C[C@@H](NC(=O)Nc2ccc(F)cc2F)C[C@H]1C(=O)N(C)CC(N)=O,inactive: -1.6%
17,COCCOc1ccnc(-c2noc([C@@H]3CCCN3Cc3ccc(C(=O)O)cc3)n2)c1,inactive: -4.19% [at 57.5 µM]
18,O=C(NCCc1ccccc1)C1CCN(C(=O)c2ncn3c2COC(c2ccc(F)cc2)C3)CC1 (stereo not given),inactive: 2.06%
19,Cc1cccc(N(CC(=O)N[C@H]2CC[C@H]2NC2CCCC2)S(C)(=O)=O)c1,inactive: -0.686%
20,O=C(C[C@@H]1O[C@H](CNS(=O)(=O)c2ccc(Cl)cc2)[C@@H](O)[C@H]1O)N1CCN(c2ccc(F)cc2)CC1,inactive: 4.03%
21,CN(Cc1cccnc1)Cc1nc(C2(O)CCN(Cc3ccc(F)cc3)CC2)cs1,inactive: 0.792% [at 57.5 µM]
22,COCCn1ncc(N2CCC(NC(=O)C(C)C)CC2)cc1=O,inactive: 17.7%
23,O=C(Nc1ccccc1)Nc1ccc(=O)n2c1[C@@H]1C[C@@H](CN(C(=O)COc3ccccc3)C1)C2,inactive: 9.88%
24,COCc1nc(C2CCCN(C(=O)c3nccn3C)C2)no1 (stereo not given),inactive: 1.83%
25,O=c1c2c(CO)c(-c3ccc(F)cc3)nn2ccn1Cc1cc(F)ccc1F,inactive: -2.68%

row,SMILES,"activity change, negative = inhibition"
1,Cn1ccc2c(C(=O)N[C@H](c3cccs3)C3CC(O)C3)cccc21 (stereo not given in full),inactive: 7.79%
2,COCc1cc(CNC(=O)c2cn(C3CCC(N)CC3)nn2)[nH]n1 (stereo not given),inactive: 4.58%
3,O=S(=O)(c1ccc(F)cc1)N1CCCC(Cc2noc(-c3cnccn3)n2)C1 (stereo not given),inactive: 0.251%
4,COCC(=O)N[C@H]1CO[C@H]2[C@@H]1OC[C@@H]2Nc1nccc(-c2cccc(C#N)c2)n1,inactive: 3.1% [at 57.5 µM]
5,COc1ccc(CCc2nc3nccc(-c4ccc(OC)c(OC)c4)n3n2)cc1OC,inactive: 3.44%
6,COc1ccc(CCC(=O)N2CCC3(CC2)CCC(O)(CN(C)C)CC3)cc1,inactive: 0.818%
7,COc1ccc(C[C@H](NC(=O)[C@@]2(O)C[C@@H](O)[C@H](O)[C@@H](NC(=O)Nc3ccc(C)cc3)C2)C(N)=O)cc1,inactive: 0.361%
8,CCN1CCC2(CCC1=O)CN(Cc1nc3c(cnn3C)c(=O)[nH]1)CCN2C (stereo not given),inactive: 62.9%
9,OC1(CN2CCCCC2)CCN(Cc2ccc(C(F)(F)F)cc2F)C1 (stereo not given),inactive: -1.26%
10,COc1cccc(CC(=O)N[C@@H]2CCC[C@@H](C(=O)NCc3cc(F)cc(F)c3)CC(=O)N(C)C2)c1,inactive: 0.514%
11,CC1=C[C@@H](CNC(=O)CC(C)(C)CC(=O)O)[C@H](C(C)C)C[C@H]1Cc1nc2ccccc2n1C,inactive: 12.7%
12,Brc1ccc(CN2CCC(c3nc4ccncc4[nH]3)C2)cc1 (stereo not given),inactive: 4.37%
13,CC(C)C1C(=O)N(C)CCN1C(=O)c1cc(COc2cccc(F)c2)[nH]n1 (stereo not given),inactive: 2.09%
14,COCCn1nc2n(c1=O)CCN(S(=O)(=O)c1c(C)nn(C)c1C)CC2,inactive: -1.21%
15,O=C(c1cccc(O)c1)N1CCNc2cnc(Nc3cccc(F)c3)nc2C1,inactive: 9.32% [at 57.5 µM]
16,CC(=O)N1CCN(c2cc(-c3noc([C@@H]4CCCN4Cc4ccc(C(F)(F)F)cc4)n3)ccn2)CC1,inactive: 1.01%
17,Cc1ccccc1NC(=O)Cn1c(-c2cccc(Cl)c2)nc(C)c(CCO)c1=O,inactive: 0.478%
18,C[S+](=O)([O-])Nc1cccc(Nc2cnc3ccc(-c4cccc(CO)c4)nn23)c1,inactive: 48.2% [at 57.5 µM]
19,CNC(=O)[C@@H](Cc1ccccc1)N1CCC[C@H]1C(=O)NC1CCOCC1,inactive: 76.8% [at 57.5 µM]
20,CC1(C(=O)Nc2ccncc2)CCCc2cnc(Nc3ccccc3)nc21 (stereo not given),inactive: 1.44% [at 57.5 µM]
21,CC1=C[C@@H](CNC(=O)c2cncnc2)[C@H](C(C)C)C[C@H]1CC(=O)N(C)Cc1ccccc1,inactive: -0.536% [at 57.5 µM]
22,O=C(NCc1cnccn1)c1nc(-c2ccccc2)cc2[nH]ccc12,inactive: 9.2% [at 57.5 µM]
23,O=C(O)c1ccc(CN2CC[C@@H](c3ccc4ccccc4c3)[C@H](O)C2)cc1,inactive: -1.37%
24,COc1ccccc1-c1[nH]nc2ncc(-c3ccccc3O)nc12,inactive: 0.175% [at 57.5 µM]
25,O=C(O)c1cc(-c2ccccc2CO)cc(S(=O)(=O)N2CCCCCC2)c1,inactive: 2.17%
